# Measurements published in PubChem BioAssay AID463173 (ICCB-Longwood Screening Facility, Harvard Medical School, 2010).
# About 4,300 (8.3%) of roughly 52,000 compounds were called active. No stated cut-off is given here; in the data, active means survival mostly below about 52% (no sharp cut-off); inactive means mostly above about 56%. This is one part of the list.
# System: DeltatarO mutant
# Experiment: growth inhibition of S. aureus wild type versus tarO mutant, primary screen, teichoic acid synthesis inhibitors, RN4220, OD600 (AID 463173)
# Details: OD600, 18 h, hits give low values, screened at 18.75 µg/mL (by protocol)
row,SMILES,survival
1,CCCOc1ccc(CNC(=O)CCCn2ncn3c(cc4sc(CC)cc43)c2=O)cc1,inactive: 85%
2,Cc1ccc(-c2cc(C(=O)Nc3ccc(SC(F)F)cc3)no2)cc1F,inactive: 47%
3,COc1cccc(NC(=O)CCC(=O)N2Cc3ccccc3Oc3ncccc32)c1,inactive: 92%
4,CCNS(=O)(=O)c1ccc(NC(=O)CSc2nc(-c3ccco3)cc(C(F)(F)F)n2)cc1,active: 36%
5,CCCOc1ccc(NC(=O)CC2C(=O)N(c3ccccc3)C(=O)N2Cc2ccco2)cc1 (configuration not stated),inactive: 124%
6,Cc1ccc(NC(=O)C(Cc2ccccc2)NS(=O)(=O)c2ccc3c(c2)c(=O)n(C)c(=O)n3C)c(C)c1 (configuration not stated),inactive: 76%
7,Cc1ccc(S(=O)(=O)N2CCN(C(=O)c3cc(-c4ccc(Br)cc4)n[nH]3)CC2)c(C)c1,inactive: 79%
8,CCN(CC)c1ccc(NC(=O)c2cccn2-c2nnc(N3CCCCC3)s2)c(C)c1,inactive: 83%
9,COC(=O)C1(CCSC)NC(c2ccc(N(C)C)cc2)C2C(=O)N(C)C(=O)C21 (configuration not stated),inactive: 92%
10,O=C(CSc1ncccn1)NCCC1=CCCCC1,inactive: 104%
11,Cc1cc(N2CCCCC2)nc2ccc(NC(=O)CCC(=O)N3CCN(c4ccccc4)CC3)cc12,inactive: 62%
12,O=C(CSCc1ccc(F)cc1)N1CCc2c([nH]c3ccccc23)C1c1ccc(Cl)cc1 (configuration not stated),inactive: 82%
13,COc1ccc(NC(=O)CN2C(=O)c3cccnc3Sc3ccccc32)cc1OC,inactive: 91%
14,CC(=O)NC(Cc1ccccc1)C(=O)NC1CCN(c2nnnn2-c2ccccc2)CC1 (configuration not stated),inactive: 105%
15,CC1=C(C(=O)Nc2cc(Cl)ccc2C)C(c2cccs2)n2ncnc2N1 (configuration not stated),inactive: 118%
16,Cc1cccc(N2CCN(C(=O)c3ccc(Nc4nc5ccccc5n5nnnc45)cc3)CC2)c1C,inactive: 96%
17,CCOC(=O)c1ccc(NC(=O)C2=C(C)Nc3nc(CCCO)nn3C2c2ccc(OC)cc2)cc1 (configuration not stated),inactive: 73%
18,Cc1cccc(NC(=O)C(=O)NCCc2csc(-c3ccc(F)cc3)n2)c1C,inactive: 83%
19,CCN(C(=O)c1cn(CC)c(=O)c2cc(OC)c(OC)cc12)c1ccccc1F,inactive: 174%
20,CCc1ccccc1NC(=O)c1noc2c1CC(C(C)(C)C)CC2 (configuration not stated),active: -6%
21,COc1ccc(CCC(=O)NC2CC(=O)N(c3ccc(OC)cc3)C2)cc1 (configuration not stated),inactive: 87%
22,Cc1cc(C)c2c(=O)cc(CSc3n[nH]c(C)n3)[nH]c2c1,inactive: 71%
23,O=c1[nH]cc(N2CCOCC2)c(=O)[nH]1,inactive: 78%

row,SMILES,survival
1,N#CCCNc1nncs1,inactive: 73%
2,CCOc1ccc(N(CC)C(=O)c2cc3c(s2)-c2ccccc2OC3)cc1,inactive: 76%
3,CC1CCN(c2nc3ccc(C(=O)N4CCN(c5ccccc5)CC4)cc3s2)CC1,inactive: 72%
4,CCC(=O)N1CCc2cc(CNC(=O)c3ccc(F)cc3)ccc21,inactive: 73%
5,Cc1ccc(-c2nc3sccn3c2Nc2ccc(C)c(C)c2)cc1,active: 36%
6,CCOc1ccccc1-n1nnnc1SCC(=O)c1cc(Cl)ccc1OC,inactive: 97%
7,COc1cc(C2C(=O)N(C3CCCCC3)CC(=O)N2C2CCCCC2)ccc1OC(C)C (configuration not stated),inactive: 62%
8,COc1ccc(CCNC(=O)C(C)n2c(=O)cc(-c3ccccc3)c3c(C)nn(C)c32)cc1OC (configuration not stated),inactive: 94%
9,CCSc1nc(-c2ccccc2F)nc2c1Cc1c(CO)cnc(C)c1O2,active: 52%
10,COC(=O)c1cc2occc2n1CC(=O)Nc1ccc(N(C)C)cc1,inactive: 85%
11,Cc1ccc(CNC(=O)Cn2c(=O)n(-c3ccc(C)cc3)c(=O)c3c2c2cc(C)ccc2n3C)cc1,inactive: 129%
12,COC(=O)c1c(N)n(-c2ccc(OC)c(OC)c2)c2nc3ccccc3nc12,inactive: 94%
13,N#Cc1nc(-c2ccc(COc3ccccc3)o2)oc1N1CCCCC1,inactive: 48%
14,Cc1ccccc1NC(=O)Cn1c(=O)n(Cc2ccccc2)c(=O)c2c(C)c(C)sc21,inactive: 136%
15,CCCCCC1CC(CC(C)C(=O)Nc2nncs2)C(=O)O1 (configuration not stated),inactive: 106%
16,Cc1nn2c(=O)cc(COC(=O)c3ccccc3NC(=O)COc3ccccc3C)nc2s1,inactive: 78%
17,O=C(NCc1ccccc1F)c1ccc(CSc2nc3cccnc3n2Cc2ccccc2)cc1,inactive: 75%
18,Cc1ccc(SCc2nc(-c3ccc(C(=O)NCCc4ccc(Cl)cc4)cc3)oc2C)cc1,active: -2%
19,COc1ccc(OC)c(NC(=O)[C@H](CSCc2ccccc2)N2Cc3ccccc3C2=O)c1,inactive: 98%
20,CCc1ccc(NC(=O)CS(=O)CC(=O)Nc2ccc(F)cc2F)cc1 (configuration not stated),inactive: 91%
21,COc1ccc(OC)c(CNc2nc3ccc(C)cc3n3nnnc23)c1,inactive: 88%
22,COC(=O)c1cc2sc(Cl)cc2n1CC(=O)Nc1cc(C)cc(C)c1,inactive: 65%
23,COc1ccc(C)cc1NC(=O)c1cc(S(=O)(=O)N2CCCCC2)c[nH]1,inactive: 72%

row,SMILES,survival
1,Cc1cc(C)cc(NC(=O)CCCc2nc(-c3ccco3)no2)c1,inactive: 88%
2,COc1ccc2c(CNCCc3cccs3)c(C(=O)O)n(Cc3ccc(F)cc3Cl)c2c1,inactive: 118%
3,Cn1c(=O)cc(SCC(=O)N2CCN(c3ccccc3F)CC2)c2ccccc21,inactive: 77%
4,CCC(Sc1nnc2c3ccccc3n(CC)c2n1)C(=O)Nc1nnc(C(C)C)s1 (configuration not stated),inactive: 87%
5,COc1ccc(-c2cc3nc(C4CCN(C(=O)OC(C)(C)C)CC4)c(C(=O)Nc4cc(C)cc(C)c4)cn3n2)cc1,inactive: 69%
6,CCCN1CCN(CCCNC(=O)c2ccc3nc(Cc4ccccc4)oc3c2)CC1,inactive: 64%
7,CCOc1ccc(NC(=O)CC2C(=O)N(c3cccc(C)c3)C(=O)N2Cc2cccs2)cc1 (configuration not stated),inactive: 89%
8,N#CCCn1cc(CO)c(-c2ccccc2)n1,inactive: 95%
9,CCCCN1CC(c2nc3ccccc3n2CCCCOc2cccc(C)c2C)CC1=O (configuration not stated),active: 2%
10,COc1ccc(CC(=O)Nc2ccc(-c3nc4ccccc4s3)c(C)c2)cc1OC,active: 37%
11,COc1ccc(-c2cc(C(F)(F)F)nc(NCCc3ccccc3)n2)cc1OC,inactive: 63%
12,Cc1csc2nc(COC(=O)c3ccccc3NC(=O)c3ccc(C(C)(C)C)cc3)cc(=O)n12,inactive: 81%
13,O=C(CCCn1c(=O)c2cccn2c2ccccc21)NCCc1ccc(Cl)cc1,active: 32%
14,CSc1nn(Cc2ccc(C)cc2)c(N)c1S(=O)(=O)c1ccccc1,inactive: 63%
15,COC(=O)c1cc(-c2ccc(C)cc2)c2c(=O)n(C)c(=O)n(C)c2n1,inactive: 107%
16,Cc1nc(-c2ccc(F)cc2)sc1CCNC(=O)C(=O)Nc1ccc2c(c1)OCCO2,inactive: 85%
17,OCCN(CCO)c1ncnc2c1cnn2-c1ccc(F)cc1,active: 6%
18,Nc1ncnc2nc(SCCO)[nH]c12,active: 63%
19,COc1ccccc1C(=O)Oc1ccc(C(c2c(C)[nH][nH]c2=O)c2c(C)[nH][nH]c2=O)cc1,inactive: 68%
20,O=C(Nc1nncs1)Oc1ccccc1,inactive: 90%
21,Cc1cccc(-n2nc(C)c(C(=O)Nc3cc(C)ccc3C)c2-n2cccc2)c1,inactive: 102%
22,Cc1ccc(-n2c(SCc3ccccc3)nc3c([nH]c4ccccc43)c2=O)cc1,inactive: 88%
23,Cc1c(CC(=O)NCc2ccc(F)cc2)c(=O)oc2cc(O)c(Cl)cc12,inactive: 65%

row,SMILES,survival
1,COc1ccc(NC(=O)CC2NCCNC2=O)c(OC)c1 (configuration not stated),inactive: 77%
2,CCOc1cccc2sc(N(Cc3cccnc3)C(=O)c3ccc(C#N)cc3)nc12,inactive: 97%
3,CCOC(=O)c1c(NC(=O)C2c3ccccc3Oc3ccccc32)sc(C)c1C,active: 12%
4,CCOc1ccc(C(=O)OC(C)CN2CCCCC2)cc1 (configuration not stated),inactive: 96%
5,O=C(NCc1ccccc1Cl)c1ccc2oc(=O)n(Cc3ccccc3)c2c1,inactive: 72%
6,CC1CCN(c2nc3ccc(C(=O)NCc4ccccc4)cc3s2)CC1,inactive: 77%
7,COc1ccc(Cn2c(SCc3ccc(C(=O)NC(C)c4ccccc4)cc3)nc3cccnc32)cc1 (configuration not stated),inactive: 76%
8,CCC1(C)Cc2c(sc3nc(SC)n(-c4ccc(C)cc4)c(=O)c23)CO1 (configuration not stated),active: 33%
9,Cc1nnc(NC(=O)c2ccccc2)s1,inactive: 71%
10,CCN(CC)C(=O)O[n+]1ccccc1C(C)C,inactive: 109%
11,Nc1nc(-c2ccco2)nn1S(=O)(=O)c1ccccc1,inactive: 84%
12,Cc1cc(NC(=O)CCNS(=O)(=O)c2cccc3nsnc23)ccc1Br,inactive: 102%
13,Cc1ccc(NC(=O)c2ccccc2Br)c(C(=O)c2ccccc2)c1,active: 26%
14,O=C(Nc1ccc(Cl)cc1)C(NS(=O)(=O)c1cccs1)c1ccccc1 (configuration not stated),active: 19%
15,Cc1cccc(OCC(=O)Nc2nnc(S(=O)(=O)N3CCc4ccccc43)s2)c1,active: 16%
16,COCc1nnc(NC(C)=O)s1,inactive: 99%
17,CCOC(=O)C1CCCN(Cc2cn3c(-c4cccc(Br)c4)nnc3s2)C1 (configuration not stated),inactive: 64%
18,Cc1ccc(-n2c(Cc3ccccc3)nnc2SCc2nc(-c3cccs3)no2)cc1C,inactive: 66%
19,CCOC(=O)CNC(=O)N1CCN(c2nnc(C)c3c(C)n(-c4ccc(Cl)cc4)nc23)CC1,inactive: 87%
20,COc1cc(NC(=O)CCCOc2cc(=O)n(C)c3ccccc23)cc(OC)c1OC,inactive: 77%
21,COc1ccc(OC)c(NC(=O)Cn2c(=O)cc(-c3ccccc3)c3c(C)nn(C)c32)c1,inactive: 94%
22,CCc1ccc(S(=O)(=O)c2nnn3c2nc(Nc2ccc(NC(C)=O)cc2)c2sccc23)cc1,inactive: 61%
23,CCOc1ccc(N(Cc2ccccc2)C(=O)c2nc(S(C)(=O)=O)ncc2Cl)cc1,active: 24%
